# According to PubChem BioAssay (NCATS):
# The inconclusive results got no clear call from the source; some entries with a clear call stand among them for comparison. For part of these data: Where the call is inconclusive, the potency comes from a doubtful curve fit. Active and inactive are the calls of the source. Unless noted, calls come from the whole dose curve; as a rule, active = well fitted curve in the direction sought with a large enough effect; inconclusive = small, poorly fitted or top-dose-only effect, or another doubt; inactive = no such curve, though single readings can be large; an effect the other way counts as inactive or inconclusive.
# Key:
# [1] = Confirmatory screen NINDS Rhodamine qHTS for Zika virus inhibitors (AID 1347161); note: potency is the fitted concentration of half-maximal effect; nearly all actives have a fitted effect of over 60% in size
# Summary of the method: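 Aprotinin served as in-plate control. Conditions: 25 nM linked NS2B-NS3, pH 8.0 Tris buffer, titrated compounds, 15 min preincubation and 15 min reaction with 1.5 microM Rhod110 substrate at room temperature.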
# [2] = Stat Signaling Pathway (AID 446; active = well fitted curve in either direction with a large enough effect, not every such curve was filed as active; inconclusive = small, poorly fitted or top-dose-only effect, or another doubt;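 note: ME-180 cervical cancer cells given 40 pM IL-6 alongside compound; SIE-controlled beta-lactamase reporter measured as 460/530 nm FRET emission ratio; top concentration of the series differs between compounds; % is set by controls: 0 for no effect and ±100 for the full control effect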); conditions: ME-180 (cervical carcinoma) SIE beta-lactamase reporter, IL-6 stimulated, 5 h; at 7.69 µM (top of the series) unless noted
# Summary of the method: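 Compound effects on IL-6-induced STAT reporter activity were measured in ME-180 cells. After overnight culture, cells were co-treated with 40 pM IL-6 for 5 hrs before beta-lactamase substrate loading at room temperature.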
# [3] = biological target: Mitogen-activated protein kinase 10 (Mus musculus) (UniProt Q61831); experiment: JNK3 AlphaScreen Assay (AID 530; active = well fitted curve in either direction with a large enough effect, not every such curve was filed as active; inconclusive = small, poorly fitted or top-dose-only effect, or another doubt;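 note: kinase came from lysate of stimulated human HepG2 cells; signal reports phosphorylation of biotinylated GST-cJun 1-79 at Ser73 with 10 µM ATP; potency is the fitted concentration of half-maximal effect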); conditions: JNK3 lysate, c-Jun phosphorylation; activity change, negative = inhibition: at 57.1 µM (top of the series)
# Summary of the method: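 Phosphorylation of biotinylated GST-cJun(1-79) at Ser73 is measured by AlphaScreen proximity luminescence. Enzyme is JNK3 in HepG2 lysates activated with interleukin-1beta and tumor necrosis factor alpha; ATP is 10 uM final.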
# [4] = Cell Viability - N2a (AID 540); conditions: N2a mouse neuroblastoma cell viability; at 92.2 µM (top of the series);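 note: cells exposed to compound for 40 h at 37 °C; plate controls were DMSO alone for no effect and tamoxifen control for full effect; nearly all actives have a fitted effect of over 45% in size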
# Summary of the method: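 Cytotoxicity was scored as loss of cellular ATP in N2a cells, a mouse neuroblastoma line. Compounds are applied in a qHTS concentration series for 40 hr at 37 °C.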
# [5] = Cell Viability - H-4-II-E (AID 543);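 note: potency is the fitted concentration of half-maximal effect; cells exposed to compound for 40 hours; nearly all actives have a fitted effect of over 35% in size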
# Summary of the method: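 Cells seeded at 1500 per well and rested 5 hr; compounds added; 40 hr incubation at 37 °C; CellTiter-Glo added, 20 min at room temperature; luminescence read. Hill-equation fits gave AC50.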
# [6] = biological target: 3',5'-cyclic-AMP phosphodiesterase 4B (Homo sapiens) (UniProt Q07343); experiment: qHTS Assay for Inhibitors of PDE-IV (AID 607; active = well fitted activation curve with a large enough effect in the main read-out, with a control signal flat, not every such curve was filed as active; inconclusive = small, poorly fitted or top-dose-only effect, or effect the other way, or a change in a side signal; note: % of control where 0% means no effect); conditions: HEK293 ACTOne CNG channel cells, membrane potential fluorescence; activation (PDE inhibition): at 22.9 µM (top of the series)
# Chain of UniProt Q07343 (Q07343 whole entry, looked up): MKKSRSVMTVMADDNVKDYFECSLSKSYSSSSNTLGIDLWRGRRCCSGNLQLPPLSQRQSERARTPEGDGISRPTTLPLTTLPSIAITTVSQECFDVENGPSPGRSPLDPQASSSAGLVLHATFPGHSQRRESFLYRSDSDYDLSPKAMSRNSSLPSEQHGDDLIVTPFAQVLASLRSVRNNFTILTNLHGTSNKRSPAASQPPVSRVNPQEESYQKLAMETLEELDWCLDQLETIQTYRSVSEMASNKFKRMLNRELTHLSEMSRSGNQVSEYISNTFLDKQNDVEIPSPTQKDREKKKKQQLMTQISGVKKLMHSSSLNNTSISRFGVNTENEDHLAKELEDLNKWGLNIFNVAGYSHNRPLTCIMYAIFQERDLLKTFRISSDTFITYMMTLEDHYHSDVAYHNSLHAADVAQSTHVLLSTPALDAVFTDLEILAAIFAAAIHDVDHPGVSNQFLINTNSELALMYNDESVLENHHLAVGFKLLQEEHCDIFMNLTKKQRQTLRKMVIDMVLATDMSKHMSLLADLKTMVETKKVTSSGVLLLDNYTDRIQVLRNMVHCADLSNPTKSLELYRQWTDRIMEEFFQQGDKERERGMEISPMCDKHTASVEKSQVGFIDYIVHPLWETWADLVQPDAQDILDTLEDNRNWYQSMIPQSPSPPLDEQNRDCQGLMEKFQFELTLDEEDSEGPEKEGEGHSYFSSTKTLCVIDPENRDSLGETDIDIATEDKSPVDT
# Summary of the method: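 ACTOne HEK293 cells carry a modified cAMP-gated CNG channel and express endogenous PDE4; plated 1000 cells/well, compounds up to 22.9 uM final. Membrane-potential dye fluorescence (ex 535/em 590) was read; parental cells received 10 uM forskolin + 100 uM RO 20-1724.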
# [7] = Cellular Toxicity (caspase-3) SHSY5Y (AID 657);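 note: potency is the fitted concentration of half-maximal effect; cells exposed to compound for 16 hours at 37 °C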
# Summary of the method: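 Readout: caspase-cleaved peptide-aminoluciferin substrate driving luciferase light in SH-SY5Y neuroblastoma cells after 16 h treatment. Response normalized to DMSO and 10 uM staurosporine controls.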
# [8] = Cellular Toxicity (caspase-3) H-4-II-E (AID 663); conditions: H-4-II-E rat hepatoma, scaled: DMSO 0%, 100 µM tamoxifen 100%; at 92.2 µM (top of the series);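 note: cells exposed to compound for 16 hr before readout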
# Summary of the method: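 Caspase 3/7 activation measured in H-4-II-E cells in complete culture medium after 16 hr treatment at 37 °C, using luciferase-coupled substrate readout; AC50 values come from Hill-equation fits of normalized concentration-response data.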
# [9] = Cellular Toxicity (caspase-3) NIH 3T3 (AID 666); conditions: NIH 3T3 caspase-3 activation, apoptosis/toxicity;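 note: potency is the fitted concentration of half-maximal effect; caspase signal read after 16 h compound exposure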
# Summary of the method: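 Cells were plated at 1000 per well and incubated 5 hr at 37°C, then compound was added for 16 hr. Caspase-Glo 3/7 reagent followed for 20 min at room temperature before luminescence was read.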
# [10] = biological target: DNA repair nuclease/redox regulator APEX1 (Homo sapiens) (UniProt P27695); experiment: Confirmation qHTS Assay for Inhibitors of the Human Apurinic/apyrimidinic Endonuclease 1 (APE1) (AID 2572);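 note: fluorescence gain from purified APE1 cutting a TAMRA/BHQ-2 THF abasic duplex; % is set by controls: 0 for no effect and ±100 for the full control effect; nearly all actives have a fitted effect of over 30% in size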
# Chain of UniProt P27695 (P27695 whole entry, looked up): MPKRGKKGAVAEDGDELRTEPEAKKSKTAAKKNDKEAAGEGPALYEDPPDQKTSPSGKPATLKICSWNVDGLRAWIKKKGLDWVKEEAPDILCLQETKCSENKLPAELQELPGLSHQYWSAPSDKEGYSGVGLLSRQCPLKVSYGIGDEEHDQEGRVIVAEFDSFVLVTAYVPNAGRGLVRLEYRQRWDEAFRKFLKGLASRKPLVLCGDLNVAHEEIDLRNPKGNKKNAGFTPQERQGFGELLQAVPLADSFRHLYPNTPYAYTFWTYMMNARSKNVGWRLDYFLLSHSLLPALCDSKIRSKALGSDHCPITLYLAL
# Summary of the method: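 Confirmation qHTS in dose-response format: APE1 exposed to compound 15 min at RT, then reaction started with 50 nM final TAMRA/BHQ-2 abasic substrate. Three fluorescence reads 60 s apart; endpoint minus initial read gives progress.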
# [11] = biological target: ATPase family AAA domain-containing protein 5 (Homo sapiens) (UniProt Q96QE3); experiment: Validation screen for small molecules that inhibit ELG1-dependent DNA repair in human embryonic kidney (HEK293T) cells expressing luciferase-tagged ELG1 (AID 493107); conditions: HEK293T ELG1-luciferase level, luminescence, 5-fluorouridine co-treatment, 16 h; activity change, negative = decrease: at 46.1 µM (top of the series);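 note: cells co-treated with the DNA-damaging agent 5-fluorouridine alongside compound; % is set by controls: 0 for no effect and ±100 for the full control effect; inhibitors lower the ELG1-luciferase luminescence signal; nearly all actives have a fitted effect of over 70% in size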
# Summary of the method: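 Cells are dispensed in 1536-well format, then 5-fluorouridine and compound are pinned in. After a 16 hr incubation at 37 °C and 5% CO2, ONE-Glo is added and luciferase measured on a CCD imager.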
# [12] = biological target: Peroxisome proliferator-activated receptor delta (Homo sapiens) (UniProt Q03181); experiment: qHTS assay for small molecule antagonists of peroxisome proliferator-activated receptor delta signaling (AID 588535; active = well fitted inhibition curve with a large enough effect in the signal ratio, with a control signal flat, not every such curve was filed as active; inconclusive = small, poorly fitted or top-dose-only effect, or effect the other way, or a change in a side signal; inactive = no such curve, though single readings can be large or run the other way; the % refers to the signal ratio); conditions: HEK293T PPARd-UAS-bla, beta-lactamase FRET ratio, 18 h; activity change, negative = inhibition: at 76.7 µM (top of the series)
# Chain of UniProt Q03181 (Q03181 whole entry, looked up): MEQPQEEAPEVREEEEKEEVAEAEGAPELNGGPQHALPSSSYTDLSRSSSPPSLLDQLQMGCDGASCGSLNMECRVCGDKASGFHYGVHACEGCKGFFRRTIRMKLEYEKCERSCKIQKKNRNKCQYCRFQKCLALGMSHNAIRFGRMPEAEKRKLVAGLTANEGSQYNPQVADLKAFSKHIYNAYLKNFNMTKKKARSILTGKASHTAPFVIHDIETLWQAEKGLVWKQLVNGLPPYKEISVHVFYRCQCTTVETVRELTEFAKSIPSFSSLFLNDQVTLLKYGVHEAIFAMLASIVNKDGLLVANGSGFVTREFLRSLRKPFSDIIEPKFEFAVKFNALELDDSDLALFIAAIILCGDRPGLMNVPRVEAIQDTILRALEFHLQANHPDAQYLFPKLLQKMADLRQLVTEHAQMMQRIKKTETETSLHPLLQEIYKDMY
# Summary of the method: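 Inhibition of PPAR-delta response element-driven beta-lactamase expression is measured in HEK293T cells exposed to a compound titration series for 18 hrs at 37 C. Half-maximal inhibition comes from Hill equation fitting.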
# [13] = biological target: Vitamin D3 receptor (Homo sapiens) (UniProt P11473); experiment: qHTS assay for small molecule antagonists of vitamin D receptor signaling (AID 588541; calls by dose curve;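 note: receptor activated by calcitriol during compound treatment; % is set by controls: 0 for no effect and ±100 for the full control effect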); conditions: HEK293T VDR-UAS-bla, beta-lactamase ratio, antagonist mode; activity change, negative = inhibition: at 76.7 µM (top of the series)
# [14] = biological target: Retinoic acid receptor RXR-alpha (Homo sapiens) (UniProt P19793); experiment: qHTS assay for small molecule antagonists of retinoid X receptor alpha signaling (AID 588546; active = well fitted inhibition curve with a large enough effect in the signal ratio, with a control signal flat, not every such curve was filed as active; inconclusive = small, poorly fitted or top-dose-only effect, or effect the other way, or a change in a side signal; inactive = no such curve, though single readings can be large or run the other way; the % refers to the signal ratio;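 note: cells stimulated with 9-cis-retinoic acid as agonist; % is set by controls: 0 for no effect and ±100 for the full control effect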); conditions: HEK293T RXRa-UAS-bla, beta-lactamase ratio, antagonist mode
# Chain of UniProt P19793 (P19793 whole entry, looked up): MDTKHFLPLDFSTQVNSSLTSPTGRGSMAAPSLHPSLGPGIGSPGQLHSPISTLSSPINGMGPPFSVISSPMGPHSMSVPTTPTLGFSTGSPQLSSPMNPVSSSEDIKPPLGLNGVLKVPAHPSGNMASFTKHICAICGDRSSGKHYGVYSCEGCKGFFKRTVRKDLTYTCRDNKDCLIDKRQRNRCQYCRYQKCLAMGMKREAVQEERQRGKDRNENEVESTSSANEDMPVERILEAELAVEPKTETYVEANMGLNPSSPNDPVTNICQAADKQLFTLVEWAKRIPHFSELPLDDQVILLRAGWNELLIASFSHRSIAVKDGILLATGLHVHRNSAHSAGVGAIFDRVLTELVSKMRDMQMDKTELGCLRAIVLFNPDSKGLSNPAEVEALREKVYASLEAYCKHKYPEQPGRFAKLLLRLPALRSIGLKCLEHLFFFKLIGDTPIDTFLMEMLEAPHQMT
# Summary of the method: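 Beta-lactamase reporter inhibition, read as CCF4 fluorescence ratio (ex 405, em 460/530 nm) after 2 h at RT. HEK293T UAS-bla cells, 2500/well, were stimulated with 9-cis-RA at 500 or 100 nM final alongside test compound for 18 h at 37 C.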
# [15] = biological target: Thyroid hormone receptor beta (Homo sapiens) (UniProt P10828); experiment: qHTS assay for small molecule antagonists of thyroid hormone receptor beta signaling (AID 588547; active = well fitted inhibition curve with a large enough effect in the signal ratio, with a control signal flat, not every such curve was filed as active; inconclusive = small, poorly fitted or top-dose-only effect, or effect the other way, or a change in a side signal; the % refers to the signal ratio;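 note: cells stimulated with 0.4 nM T3 agonist during compound exposure; % is set by controls: 0 for no effect and ±100 for the full control effect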); conditions: TR-UAS-bla HEK293, beta-lactamase ratio, antagonist mode, 18 h
# Chain of UniProt P10828 (P10828 whole entry, looked up): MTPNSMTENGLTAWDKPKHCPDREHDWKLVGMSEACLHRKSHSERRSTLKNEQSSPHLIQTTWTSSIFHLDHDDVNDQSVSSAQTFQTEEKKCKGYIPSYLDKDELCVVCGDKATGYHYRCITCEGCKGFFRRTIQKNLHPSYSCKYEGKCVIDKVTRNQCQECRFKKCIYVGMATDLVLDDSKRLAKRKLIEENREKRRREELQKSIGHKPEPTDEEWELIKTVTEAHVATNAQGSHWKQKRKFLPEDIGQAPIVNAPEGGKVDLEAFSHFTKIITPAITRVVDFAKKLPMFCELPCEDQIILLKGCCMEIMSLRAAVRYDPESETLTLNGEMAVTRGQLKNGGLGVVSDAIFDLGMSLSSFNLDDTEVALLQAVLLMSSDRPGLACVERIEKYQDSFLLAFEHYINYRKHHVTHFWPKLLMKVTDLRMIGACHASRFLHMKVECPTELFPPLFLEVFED
# Summary of the method: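 TR-UAS-bla GripTite HEK293 cells in 2% charcoal/dextran FBS medium were preincubated 4 h at 37 C, given compound (0.59 nM to 92 uM) plus 0.4 nM T3 (final) for 18 h, then CCF4 for 2 h at RT; Hill fit gave IC50.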
# [16] = qHTS of Nrf2 Activators: LOPAC Validation (AID 624149); note: potency is the fitted concentration of half-maximal effect
# Summary of the method: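 Cells (AREc32_Fluc) are plated at 1000 per well in OPTI-MEM containing 5% FBS and left overnight. Compounds are pinned in and incubated 24 hr at 37 deg C, and firefly luciferase is detected with Steady-Glo.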
# [17] = qHTS assay for small molecule disruptors of the mitochondrial membrane potential - 5 hr assay (AID 651755; calls by dose curve; note: % is set by controls: 0 for no effect and ±100 for the full control effect; nearly all actives have a fitted effect of over 40% in size); conditions: JC-1-type ratio dye; ratio change, negative = disruption: at 92.2 µM (top of the series)
# Summary of the method: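 Seed HepG2 overnight, add compound, incubate 5 hr at 37C and 5% CO2, stain 30 min with Mito-MPS, then measure monomer (490/535 nm) and aggregate (540/590 nm) fluorescence.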
# [18] = biological target: Tumor necrosis factor (Homo sapiens) (UniProt P01375); experiment: qHTS assay to identify small molecules that stimulate Tumor Necrosis Factor-alpha (TNF-alpha) secretion (AID 651757; active = well fitted curve in the direction sought with a large enough effect in the signal ratio; inconclusive = small, poorly fitted or top-dose-only effect, or a change in a side signal; inactive = no such curve, though single readings can be large or run the other way; the % refers to the signal ratio; note: 0% is about no effect); conditions: Human cells, HTRF 665/615 ratio; activation (TNF-alpha secretion): at 92.2 µM (top of the series)
# Chain of UniProt P01375 (P01375 whole entry, looked up): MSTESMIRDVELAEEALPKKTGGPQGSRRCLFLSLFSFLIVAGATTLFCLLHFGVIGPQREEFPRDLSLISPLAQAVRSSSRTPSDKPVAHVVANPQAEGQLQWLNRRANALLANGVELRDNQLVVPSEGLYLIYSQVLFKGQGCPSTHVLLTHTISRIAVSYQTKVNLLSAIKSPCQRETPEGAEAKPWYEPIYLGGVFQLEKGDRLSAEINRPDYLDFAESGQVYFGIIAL
# Summary of the method: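 Human monocytic THP-1 cells are plated, treated with compound and held at 37 C for 17 hrs. Labeled anti-TNF-alpha antibody mixture is then added; after 3 hr at room temperature, TR-FRET signal reports secreted TNF-alpha.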
# [19] = qHTS assay for cell viability of HEK293 cells (AID 743288); conditions: ATP luminescence (CellTiter-Glo), 18 h; max response: hits give low values; note: potency is the fitted concentration of half-maximal effect; nearly all actives have a fitted effect of over 50% in size
# Summary of the method: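 HEK293, 18 h, 37 C, ATP luminescence. Cells at 2,000/well were allowed at least 5 h to settle before dosing; CellTiter-Glo developed 30 min at RT.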
# [20] = biological target: Lysine-specific demethylase 5B (Homo sapiens) (UniProt Q9UGL1); experiment: Optimization screen for KDM5B Histone Demethylases FDH coupled qHTS against the LOPAC library (AID 1347166); conditions: KDM5B demethylation, FDH-coupled NADH fluorescence (FDH is formaldehyde dehydrogenase); activity, negative = inhibition: at 57.5 µM (top of the series) unless noted; note: potency is the fitted concentration of half-maximal effect
# Chain of UniProt Q9UGL1 (Q9UGL1 whole entry, looked up): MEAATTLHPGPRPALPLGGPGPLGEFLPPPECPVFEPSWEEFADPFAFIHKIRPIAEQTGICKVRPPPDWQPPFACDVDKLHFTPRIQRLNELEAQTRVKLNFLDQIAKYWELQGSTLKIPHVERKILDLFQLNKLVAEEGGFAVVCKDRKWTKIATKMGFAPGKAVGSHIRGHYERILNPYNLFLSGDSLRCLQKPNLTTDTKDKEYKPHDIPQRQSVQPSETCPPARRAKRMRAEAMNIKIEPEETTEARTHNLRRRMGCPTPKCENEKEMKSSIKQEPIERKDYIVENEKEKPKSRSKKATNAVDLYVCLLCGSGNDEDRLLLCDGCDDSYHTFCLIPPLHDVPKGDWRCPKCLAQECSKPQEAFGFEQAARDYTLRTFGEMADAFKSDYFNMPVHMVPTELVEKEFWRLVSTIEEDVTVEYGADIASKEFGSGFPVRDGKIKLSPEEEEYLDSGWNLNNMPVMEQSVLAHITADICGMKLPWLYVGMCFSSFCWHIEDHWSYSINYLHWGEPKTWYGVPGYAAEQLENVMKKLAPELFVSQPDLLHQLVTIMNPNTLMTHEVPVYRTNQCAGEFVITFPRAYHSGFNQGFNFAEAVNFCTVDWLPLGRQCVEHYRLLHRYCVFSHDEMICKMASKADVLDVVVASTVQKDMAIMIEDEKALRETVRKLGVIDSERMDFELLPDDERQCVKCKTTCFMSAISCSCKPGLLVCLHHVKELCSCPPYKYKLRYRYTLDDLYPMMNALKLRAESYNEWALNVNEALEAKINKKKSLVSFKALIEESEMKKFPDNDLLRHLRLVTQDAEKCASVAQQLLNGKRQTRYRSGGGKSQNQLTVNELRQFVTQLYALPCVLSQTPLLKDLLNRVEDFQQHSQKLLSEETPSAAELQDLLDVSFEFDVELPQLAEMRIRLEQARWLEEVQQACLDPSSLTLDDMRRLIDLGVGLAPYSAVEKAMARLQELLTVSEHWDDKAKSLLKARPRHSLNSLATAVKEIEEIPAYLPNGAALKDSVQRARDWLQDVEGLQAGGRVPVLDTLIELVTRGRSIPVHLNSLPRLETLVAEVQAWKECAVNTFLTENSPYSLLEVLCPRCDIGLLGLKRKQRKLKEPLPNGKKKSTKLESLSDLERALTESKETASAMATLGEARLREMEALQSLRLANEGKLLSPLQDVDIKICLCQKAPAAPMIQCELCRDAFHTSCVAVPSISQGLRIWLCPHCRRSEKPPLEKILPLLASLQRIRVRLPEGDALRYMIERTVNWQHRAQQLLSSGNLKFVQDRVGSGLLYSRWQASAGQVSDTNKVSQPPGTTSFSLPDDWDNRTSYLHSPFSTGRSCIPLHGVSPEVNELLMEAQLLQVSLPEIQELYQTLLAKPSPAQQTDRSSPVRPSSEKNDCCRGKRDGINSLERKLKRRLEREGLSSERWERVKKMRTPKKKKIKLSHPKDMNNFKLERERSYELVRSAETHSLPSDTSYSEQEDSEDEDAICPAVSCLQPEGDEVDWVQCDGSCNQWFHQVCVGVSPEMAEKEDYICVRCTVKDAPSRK
# Summary of the method: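 KDM5BDeltaAP (200nM final) in 50mM HEPES pH 7.5, 0.01% Tween-20 was preincubated with compound for 10 min at room temperature. A substrate mix of 12.5uM H3K4Me3, 25uM a-ketoglutarate, ascorbate, Fe2+, NAD+ and formaldehyde dehydrogenase was then added. NADH fluorescence (340/450 nm) was read initially and after 30 min.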
# [21] = Primary qHTS for inhibitors of La Crosse Virus (LACV) - induced cell death in SH-SY5Y cells (AID 1508616); note: potency is the fitted concentration of half-maximal effect
# Summary of the method: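 SH-SY5Y, 6000 cells/well; cpd via pin tool in DMSO; LACV 0.01 MOI; 6 d 37C 5% CO2; ATPLite, 5 min RT; luminescence normalized to ±virus DMSO controls.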
# [22] = Confirmatory qHTS for small molecule stabilizers of the endoplasmic reticulum resident proteome: Secreted ER Calcium Modulated Protein (SERCaMP) assay (AID 1508628); note: potency is the fitted concentration of half-maximal effect; nearly all actives have a fitted effect of over 40% in size
# Summary of the method: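 Reporter secretion upon ER calcium depletion (100 nM thapsigargin, 4 h, 37C) is measured as medium luminescence with coelenterazine, after 16 h compound pretreatment of SH-SY5Y-GLuc-SERCaMP cells; primary at three concentrations up to 38.3 uM, follow-up at 11 (up to 76.6 uM).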
# [23] = Primary qHTS for small molecule stabilizers of the endoplasmic reticulum resident proteome: Secreted ER Calcium Modulated Protein (SERCaMP) assay (AID 1508630); conditions: SH-SY5Y GLuc-SERCaMP (Gaussia luciferase released on ER calcium loss) secretion, thapsigargin, luminescence; activity change, negative = inhibition: at 38.4 µM (top of the series) unless noted; note: potency is the fitted concentration of half-maximal effect
# Summary of the method: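 The SH-SY5Y reporter protocol was run at 3 concentrations up to 38.3 uM (primary) or 11 concentrations (follow-up): 16 h compound, 100 nM thapsigargin for 4 h, then extracellular luciferase luminescence.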
# [24] = test system: Zika virus NS2B-NS3 protease (linked); experiment: 384 well plate NINDS AMC confirmatory qHTS for Zika virus inhibitors (AID 1347163); note: potency is the fitted concentration of half-maximal effect; nearly all actives have a fitted effect of over 50% in size
# Summary of the method: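 Fluorescence at 355/460 nm was read after 25 minutes of cleavage of 30 microM Ac-VKTGKR-AMC at room temperature, in the dark. Before substrate addition, compounds (up to 1 mM final) sat ~15 minutes with 5, 30 or 60 nM linked protease. Signals were normalized to no-enzyme and no-inhibitor wells.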
# [25] = Tertiary RLuc qRT-PCR qHTS assay for Zika virus inhibitors (AID 1347169); note: potency is the fitted concentration of half-maximal effect; nearly all actives have a fitted effect of over 55% in size
# Summary of the method: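 Inhibition of ZIKV-RLuc replication in Vero cells, read as Renilla luminescence 1-1.5 hrs after live-cell substrate addition, following 48-72 hrs infection at MOI 1-2 in presence of compound.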
# [26] = biological target: Cytochrome P450 2D6 (Homo sapiens) (UniProt P10635); experiment: Cytochrome P450 family 2 subfamily D member 6 (CYP2D6) small molecule antagonists: luciferase biochemical (cell-free) qHTS assay (AID 1645840; active = well fitted curve in the direction sought with a large enough effect in the repeat runs; inconclusive = weak or mixed curves; inactive = no such curve, though single readings can be large; an effect the other way counts as inactive or inconclusive; note: potency is the fitted concentration of half-maximal effect; nearly all actives have a fitted effect of over 55% in size)
# Chain of UniProt P10635 (P10635 whole entry, looked up): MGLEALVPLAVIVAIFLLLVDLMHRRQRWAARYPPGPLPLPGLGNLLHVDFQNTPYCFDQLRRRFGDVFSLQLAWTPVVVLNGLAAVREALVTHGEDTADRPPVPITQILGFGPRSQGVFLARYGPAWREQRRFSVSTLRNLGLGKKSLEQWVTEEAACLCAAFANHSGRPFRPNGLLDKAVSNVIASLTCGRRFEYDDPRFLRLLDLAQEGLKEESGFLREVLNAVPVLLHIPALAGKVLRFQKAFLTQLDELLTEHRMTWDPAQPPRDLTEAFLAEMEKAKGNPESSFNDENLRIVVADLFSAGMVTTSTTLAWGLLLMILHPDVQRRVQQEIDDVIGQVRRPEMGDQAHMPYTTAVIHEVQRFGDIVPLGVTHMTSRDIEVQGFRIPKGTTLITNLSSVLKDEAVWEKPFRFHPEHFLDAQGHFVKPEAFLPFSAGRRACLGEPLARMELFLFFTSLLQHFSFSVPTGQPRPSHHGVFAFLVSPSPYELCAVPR
# Summary of the method: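 P450-Glo CYP2D6 system: proluciferin substrate converted by enzyme to luciferin, read by luminescence proportional to activity. Enzyme-substrate mix with compound 10 min at room temperature, then NADPH regeneration 1 h before detection reagent.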
# Tags give direction and shape of the fitted curve.
structure (smiles),measurement,setting,value
O=C(COc1ccc(F)cc1)Nc1ccc(C(=O)OCc2cc(=O)n3nc(C4CC4)sc3n2)cc1,Potency,[1],"inconclusive: 44.7 µM [inhibitor, partial curve, poor fit]"
Oc1ccccc1O,"activity, negative = inhibition",[2],inconclusive: -37% [inhibitor] [at 38 µM]
same,Potency,[3],"inconclusive: 15.8 µM [inhibitor, single point]"
same,"activity change, negative = cytotoxicity",[4],inconclusive: -58.7%
same,Potency,[5],"inconclusive: 39.8 µM [falling, partial curve]"
same,Potency,[6],inactive
same,Potency,[7],"inconclusive: 15.8 µM [rising, partial curve]"
same,caspase-3 activation,[8],inconclusive: 66.2%
same,Potency,[9],"inconclusive: 25.1 µM [rising, partial curve]"
same,Potency,[10],inactive
same,Potency,[11],inactive
same,"activity change, negative = inhibition",[12],inconclusive: 9.67%
same,"activity change, negative = inhibition",[13],inconclusive: -40.7%
same,max response,[14],inconclusive: -11.9%
same,activity change % (negative = inhibition),[15],inactive: -12.3%
same,Potency,[16],"inconclusive: 23.1 µM [activator, single point]"
same,"ratio change, negative = disruption",[17],inconclusive: -29.7%
same,activation (TNF-alpha secretion),[18],inconclusive: 0.787%
same,Potency,[19],"inconclusive: 6.31 µM [cytotoxic, full curve, poor fit]"
same,Potency,[20],"inconclusive: 10 µM [inhibitor, full curve, poor fit]"
same,Potency,[21],active: 2 µM
same,Potency,[22],active: 7.08 µM
same,Potency,[23],active: 25.1 µM
O=C(Nc1cccc(C(=O)OCc2cc(=O)n3nc(C4CC4)sc3n2)c1)c1cccc(F)c1,Potency,[24],"inconclusive: 126 µM [inhibitor, partial curve, poor fit]"
COc1ccc(Nc2nnc(-c3ccc(C)c(S(=O)(=O)NCc4nc5ccccc5[nH]4)c3)c3ccccc23)cc1,Potency,[1],"inconclusive: 44.7 µM [inhibitor, partial curve]"
same,Potency,[25],"inconclusive: 1.12 µM [inhibitor, single point]"
same,Potency,[26],active: 4.25 µM
